Here are results for 14 molecules from article PMC12136788.

The list shows a part of the results.

To fix the notation:
B1: chr9:7834011:7834012:-_ENSMUSG00000057367_ENSMUST00000074246|mus_hu|FALSE|FALSE (ssRNA)
RNA: GGGAGUUCUACAGUCCGACGAUCUGCAUAACUGUAGGGGUUAGUCCUCGAUGAAGAGAUGUCUUCAACUGCUCUAGAAUUAAGAGGGUUUGGAGAAAGGCUGGAGUAAGAACCACUGAACAAGCUACUAUGUUCCAAGGUGGGCAACAGAGGAUUGAGCAUCA
B2: chr1:27861377:27861378:-_ENSG00000126705_ENST00000374011|hu_hu|FALSE|FALSE (ssRNA)
RNA: GGGAGUUCUACAGUCCGACGAUCGGUCUGCAGGGGGUGUAGGGGGCAGGGUGGGAGGCAGAGGGGCAGGAGCUCCUGCCAGAGGACGAUGUGGACGCUGGGAGGGAUCUUGGCGUUGGUUUUCUGAAAGCCAGGAACAAAACCCAACAGAGGAUUGAGCAUCA
B3: 75141830_75143030_377_3pUTR_ENSMUSG00000021996_ENSMUST00000022573|mouse|control|control (ssRNA)
RNA: GGGAGUUCUACAGUCCGACGAUCGGAAGCUCCUCGGUGACGUAAGAGUACAUUCUGUAGUUAGCUUUCCAAGGAUCUUCAGUGGCAUUCACAUAAAACCCAGCACCAGUGCCGAAGUCCCAGCUGUCAUCUUCUCCUUUGAUACAACAGAGGAUUGAGCAUCA
B4: chr14:76904430:76904431:+_ENSMUSG00000022010_ENSMUST00000022587|mus_mus|mus_mus_mus_hu_True|28_78 (ssRNA)
RNA: GGGAGUUCUACAGUCCGACGAUCUGCAGCCAAAAACACCCUCGUGGAAAAAAAGAGCAAGCUCCAGCAGCCUUGUAUAAGCUAGAUAAAAUCUUCUGGCUUUCCGCAGCUCAGGGCGAAACAGAAAACGGCAGCCCUAAUUUACAACAGAGGAUUGAGCAUCA
B5: chr4:63681588:63681589:-_ENSMUSG00000028364_ENSMUST00000107372|mus_mus|FALSE|FALSE (ssRNA)
RNA: GGGAGUUCUACAGUCCGACGAUCGCUUGUGCCUGAUGAUUUUCUUGAGGACCCCACCUUCGGGAGUGAGGGCAAACAAAGCUAGAAAGAUGCCUGGCAGUAGCCAGGUCACGGCCCCCAUGGUGGAGGUUGGACUGGCUAGGUCAACAGAGGAUUGAGCAUCA
B6: 97538318_97538526_2474_CDS_ENSMUSG00000038437_ENSMUST00000044730|mouse|control|control (ssRNA)
RNA: GGGAGUUCUACAGUCCGACGAUCGUCCAGGCCGAGGCUGUUCUUCCCGGGAGGGCUCUUGCUGACGCUCAGGGAGUCACUGCUGCCAGCUUGAGGAAGCAGUCCAUAGGGCCCUGGGAUGGGGCCGUUAGUGGCCGGCAGGGCCAACAGAGGAUUGAGCAUCA
B7: chr1:180459674:180459675:+_ENSMUSG00000026494_ENSMUST00000161017|mus_hu|FALSE|FALSE (ssRNA)
RNA: GGGAGUUCUACAGUCCGACGAUCGCCUCUCUUUAUUCCCAGCUACCGAAUUCAUGGUGGCUUUUCCAGAGGAGAGUAUCUAAAGGUUCCACCGACGCUACAUCCAGAAGGUCCUCCAACCCAGAAGCGUCCCCCGGCUGCAGGCAACAGAGGAUUGAGCAUCA
B8: chr2:157388114:157388115:+_ENSMUSG00000067786_ENSMUST00000109526|mus_mus|FALSE|FALSE (ssRNA)
RNA: GGGAGUUCUACAGUCCGACGAUCUUGGUGGAGGUGGUCCCUGUCUCCAGGAGCUUACAAUCUAGCUGGGGAGACACUACUAAUGCACACUUAAACCAGUACAAUUAGCGACUACCACAAUAUUGACCACAACUGCUGCGUGAGCAACAGAGGAUUGAGCAUCA
B9: chr1:45984709:45984710:-_ENSG00000117450_ENST00000319248|hu_hu|motif|central (ssRNA)
RNA: GGGAGUUCUACAGUCCGACGAUCUUUUAGCAUUUCCUGAAGACAUCUUCCUAUCAGCAGUCCCAACACAAGUCGCAGAAACGGACCACCGACACCAGGCAAGAACAAGACGCGCAAGAGCUCUCCGGGGCGCUGCCUUUAUAGCAACAGAGGAUUGAGCAUCA
B10: chrX:101157612:101157613:-_ENSMUSG00000056537_ENSMUST00000070705|mus_mus|FALSE|FALSE (ssRNA)
RNA: GGGAGUUCUACAGUCCGACGAUCAAAUUAUCAGUAACAGGUUAGCAAUUCAUCUGGUACCGAAAUCAAAUGUUUAAGUCCUAAAAUGUUGUUUUUAAAAUAUUCUUUCCAUCCUGAAAGAGAAACUAGAGAAAAGGCAUGAUACAACAGAGGAUUGAGCAUCA
B11: chr13:49748638:49748639:+_ENSG00000102531_ENST00000398316|hu_hu|FALSE|FALSE (ssRNA)
RNA: GGGAGUUCUACAGUCCGACGAUCACUUGUACCAUAGUCAUUUCUGGCCGAUAGUCUGAAUUUACAGCCCAUUGCUGGUGAAAGUUUAGUAAUUUUAAAUUGUUUCUGUGAGCCCAUGUAACACUGACAAAAUUCUCCAUUUCCCAACAGAGGAUUGAGCAUCA
B12: 81641522_81643749_1588_3pUTR_ENSG00000153956_ENST00000356860|human|control|control (ssRNA)
RNA: GGGAGUUCUACAGUCCGACGAUCCUAAAACCAUUGGUCUUCCCAAAACAUCCAAAUAUUCCUGAGUAUUGAUUCUUAUUGCACCAAUGGAAGGAAUUUCAUAAUAAUAACCUUUGUUUUCACAGGCCAUCCACUGAAUAGGUCCAACAGAGGAUUGAGCAUCA
B13: chrX:71549762:71549763:+_ENSMUSG00000019087_ENSMUST00000019231|mus_mus|mus_mus_mus_hu_False|18_68 (ssRNA)
RNA: GGGAGUUCUACAGUCCGACGAUCAAACCCGUGUACUUCUUAUUGUUAGCACAACAUCACCAGAAAAAAAACAUAACAGCCAAGCAGGACAGACAGUUAAGUAGUACUUCCACACUCCGCAAAUUCAGGAGCCCUAUAACCUUACAACAGAGGAUUGAGCAUCA
B14: chr18:42401725:42401726:-_ENSMUSG00000024493_ENSMUST00000097590|mus_mus|motif|central (ssRNA)
RNA: GGGAGUUCUACAGUCCGACGAUCAGGCCGAACCCAACAAUUUGUCUGCCCAAACAUAGUCUCAGGUCUGAGUGUAGCAGCGGCGGGGAAGAUAUUUUUCCCUUUCAGGCCGCUUAAUUUUGAUGGAUAUGGUUCAAGCACCUUCAACAGAGGAUUGAGCAUCA

In the test the target is T1, UNK ZnF1-3 (human, UniProt Q9C0B0 31-174).
T1 sequence: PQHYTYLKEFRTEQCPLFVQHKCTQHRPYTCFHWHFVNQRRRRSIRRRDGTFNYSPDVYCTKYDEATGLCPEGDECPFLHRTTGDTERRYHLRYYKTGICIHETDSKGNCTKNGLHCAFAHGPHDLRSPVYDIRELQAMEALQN
Put plainly: nsRBNS (natural sequence RNA bind-n-seq); RBNS binding buffer (assumed for nsRBNS): 25 mM Tris pH 7.5, 150 mM KCl, 3 mM MgCl2, 0.01% Triton X-100, 500 ug/ml BSA, 20 U/ml SUPERase-In, 4 C; UNK is unkempt and MSI1 is Musashi-1; names of the RNAs are library labels; protein concentration not given here; high values mean tight binding.
B1 had a binding signal of 1.56 enrichment R.

Regarding B2, the binding signal worked out at 2.07 enrichment R.

B3 gave a binding signal of 1.06 enrichment R.

In turn, B4 had a binding signal of 1.68 enrichment R.

As to B5, the binding signal came out at 0.888 enrichment R.

The molecule B6 displayed a binding signal of 1.32 enrichment R.

For B7, the binding signal was 1.45 enrichment R.

B8 registered a binding signal of 1.64 enrichment R.

Take B9: the binding signal came out at 1.02 enrichment R.

For the molecule B10, the binding signal was 1.39 enrichment R.

Turning to B11, the binding signal was found to be 1.29 enrichment R.

Molecule B12 yielded a binding signal of 0.997 enrichment R.

The molecule B13 showed a binding signal of 2.18 enrichment R.

In turn, B14 came in with a binding signal of 0.968 enrichment R.
